Reference: PubChem BioAssay AID488969 (Vanderbilt High Throughput Screening Facility, 2010)
Whole data set: some 110,000 compounds, median “z-score” near -0.1, cut for the highest 2% near 2. This is one part of the list. Activity calls are given as the source filed them.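 The calls were made as follows: active = z-score in the third read window above 3 or below -3; inactive = the rest.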

The compounds below were run against Metabotropic glutamate receptor 8 (Rattus norvegicus) (UniProt P70579) (assay: rat mGluR8 modulators via GIRK flux, primary screen, cell-based, thallium flux, HTS (AID 488969)). Conditions: HEK293 rat mGluR8, GIRK (G protein-gated inwardly rectifying potassium channel) thallium flux, FluoZin2; at 10 µM; stronger effect = higher value; submaximal glutamate (EC20) added with thallium.
Chain of UniProt P70579 (P70579 whole entry, looked up): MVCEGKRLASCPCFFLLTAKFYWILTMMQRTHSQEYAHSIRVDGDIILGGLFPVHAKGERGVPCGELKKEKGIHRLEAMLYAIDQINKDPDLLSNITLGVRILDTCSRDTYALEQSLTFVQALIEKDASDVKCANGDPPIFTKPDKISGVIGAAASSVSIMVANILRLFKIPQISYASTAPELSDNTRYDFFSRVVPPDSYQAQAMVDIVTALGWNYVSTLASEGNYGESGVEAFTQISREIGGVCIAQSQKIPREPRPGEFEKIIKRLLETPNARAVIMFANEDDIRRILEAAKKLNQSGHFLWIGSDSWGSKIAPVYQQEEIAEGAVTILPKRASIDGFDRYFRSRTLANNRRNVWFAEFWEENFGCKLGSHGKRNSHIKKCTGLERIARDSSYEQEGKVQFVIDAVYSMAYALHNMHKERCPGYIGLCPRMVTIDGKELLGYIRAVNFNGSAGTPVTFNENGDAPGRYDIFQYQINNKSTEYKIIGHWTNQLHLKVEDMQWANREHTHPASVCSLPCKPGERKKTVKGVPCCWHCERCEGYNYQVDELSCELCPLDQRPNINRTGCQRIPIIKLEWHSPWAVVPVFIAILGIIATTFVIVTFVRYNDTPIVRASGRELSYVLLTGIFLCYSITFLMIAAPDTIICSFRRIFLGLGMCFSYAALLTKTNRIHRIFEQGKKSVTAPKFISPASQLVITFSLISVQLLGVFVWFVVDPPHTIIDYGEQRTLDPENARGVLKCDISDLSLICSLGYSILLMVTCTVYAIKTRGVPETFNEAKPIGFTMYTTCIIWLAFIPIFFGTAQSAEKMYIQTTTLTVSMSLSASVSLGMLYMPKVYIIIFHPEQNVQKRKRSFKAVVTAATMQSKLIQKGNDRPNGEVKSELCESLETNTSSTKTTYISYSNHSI

Row | Compound | z-score
1 | O=C(CSc1nc2cc(Cl)ccc2s1)c1cc2ccccc2o1 | 1.64
2 | CC1(C)CC(=O)c2cnc(NC(=O)CCc3ccccc3)nc2C1 | -0.267
3 | CCOCCCNC(=O)C(c1ccc(Cl)cc1)N1CCN(C(=O)c2ccco2)CC1 (stereo unspecified) | -0.399
4 | O=C(COc1cccc(Oc2ccccc2)c1)Nc1ncccn1 | -1.72
5 | COc1ccc(NC(=O)CCS(=O)(=O)c2ccc3c(c2)CCCN3C(C)=O)cc1 | 0.847
6 | Cc1occc1-c1n[nH]c(=S)n1-c1ccccc1 | 0.0165
7 | Cc1ccc(C)c(NC(=O)CSc2nnc([C@@H]3CCCN3C(=O)OC(C)(C)C)o2)c1 | 0.531
8 | COc1ccc(CNc2oc(COc3ccccc3Cl)nc2C#N)cc1 | -0.457
9 | COc1ccc(-c2nnc(NC(=O)c3ccc(S(=O)(=O)N4CCc5ccccc5C4)cc3)o2)cc1 | active: 9.68
10 | Cc1ccccc1NC(=O)CN1C(=O)COc2ccc(Cl)cc21 | -0.461
11 | CCN(CC)S(=O)(=O)c1cccc(-c2nnc(SCC(=O)c3cc(C)n(C)c3C)o2)c1 | -0.404
12 | COc1ccccc1NC(=O)Cn1c(CN2CCCCC2)nc2ccccc2c1=O | -0.0646
13 | CCOc1ccc(NS(=O)(=O)c2ccc(OCC)c3ncccc23)cc1 | -0.466
14 | CCCCN1C(=S)SC(C)(C)C1/[N+]([O-])=C/c1cccnc1 (stereo unspecified) | -0.00445
15 | Cc1ccc(OCCn2c(=O)sc3ccccc32)cc1 | -0.193
16 | CC(C)[C@H](NC(N)=O)C(=O)Nc1ccc2c(c1)CCC2 | 0.278

Row | Compound | z-score
17 | Cc1cc(C(=O)COc2cccc3cccnc23)c(C)n1C | 1.45
18 | COc1cccc(C(=O)NCc2cn3ccsc3n2)c1 | active: 15.2
19 | CCn1c(/N=C/c2c[nH]c3ccccc23)nc2ccccc21 | 0.382
20 | Cc1cccc(NC(=S)N/N=C/c2c[nH]c3ccccc23)c1 | -0.0914
21 | C=CCSc1nc2c(sc3nc(C)cc(C)c32)c(=O)[nH]1 | -1.32
22 | COC(=O)C1=C(C)NC(=O)CC1c1cc(Br)ccc1F (stereo unspecified) | -0.0702
23 | O=C(Nc1cccnc1)c1c(F)c(F)c(F)c(F)c1F | 0.614
24 | O=C(NCCc1ccccc1)C(c1cccs1)N(C(=O)CCl)c1ccc(Cl)cc1 (stereo unspecified) | -0.168
25 | O=C(Nc1ccc(N2CCCCC2)c(C(=O)O)c1)c1ccco1 | -0.186
26 | O=C(Cc1cccs1)Nc1nc2c(ccc3ccccc32)s1 | 0.34
27 | Cc1ccc(C(=O)NC(=S)N2CCN(c3ccc([N+](=O)[O-])cc3)CC2)cc1 | 0.426
28 | C/C(O)=C(\C#N)c1nc2ccccc2[nH]1 | -0.0354
29 | O=C(CNCCC1=CCCCC1)Nc1ccc(N2CCCCCC2)cc1 | -0.0273
30 | Cc1cccc(C)c1OCC(O)CNS(=O)(=O)c1ccccc1C(=O)N1CCCCC1 (stereo unspecified) | 1.51
31 | CON/C=C(\C=Nc1ccc(Cl)cc1)c1ncc(C(F)(F)F)cc1Cl | 0.285
